Assay results as given in PubChem BioAssay AID485297 (National Center for Advancing Translational Sciences (NCATS), 2010).
Screen size: about 320,000 compounds; about 9,100 (2.8%) were called active. The inconclusive results got no clear call from the source; some entries with a clear call stand among them for comparison. Calls follow the shape of the dose curve; as a rule, active = well fitted activation curve with a large enough effect; inconclusive = small, poorly fitted or top-dose-only effect; inactive = no such curve, though single readings can be large or run the other way. Potencies of inconclusive entries are left out as doubtful fits.

assay: qHTS Assay for Rab9 Promoter Activators; settings: Huh7 Rab9 promoter-luciferase reporter, luminescence, 24 h; series mostly up to 9.22 µM; activation, negative = inhibition: at the top concentration; also: nearly all actives have a fitted effect of over 60% in size; as to activation, negative = inhibition: % of control where 0% means no effect
Summary of the method: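 Huh7 cells stably carrying Rab9 promoter–luciferase reporter, plated 1500 cells/well, compound added after 2 h and incubated 24 h at 37 °C; luciferase luminescence then read after 10 min with detection reagent.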
Potency is read from the fitted curve at half-maximal effect; tags tell the direction and shape of the fitted curve.

| SMILES | Potency | activation, negative = inhibition |
| --- | --- | --- |
| CCCn1c(O)c(C=Nc2ccccc2)sc1=S | inconclusive [activator, single point] | – |
| Cc1cc2cc(OCC(=O)O)ccc2n1C | – | inactive: 1.47% |
| C/C(=N\NC(=O)c1cc(C(C)C)[nH]n1)c1ccco1 | active: 2.51 µM | – |
| C=CCNC(=O)c1ccc(NC(=O)C2=CSCCO2)cc1 | active: 0.794 µM | – |
| Cc1ccc(C(=O)NC2CCCCCCC2)cc1S(=O)(=O)N1CCOCC1 | inconclusive [activator, full curve] | – |
| C=CCN=C(NC#N)SCC(=O)c1cccc(OC)c1 | inconclusive [activator, single point] | – |
| Cc1ccc(OCCOc2cccc(Br)c2)c([N+](=O)[O-])n1 | inconclusive [activator, single point] | – |
| O=C(Nc1ccc2nc(-c3ccccc3)oc2c1)c1ccco1 | active: 3.16 µM | – |
| Cc1ccc2nc(COc3ccc(Cl)cc3)cc(=O)n2c1 | active: 1.26 µM | – |
| OCC(CO)(CO)NCc1ccc(-c2ccccc2)cc1 | inconclusive [activator, single point] | – |
| O=C(NCc1cn2ccccc2n1)c1ccco1 | – | inactive: 2.88% |
| COC(=O)c1c(C)[nH]c(C=O)c1-c1ccccc1 | inconclusive [activator, single point] | – |
| OCc1cn(-c2ccccc2)nc1-c1ccc2c(c1)OCCO2 | inconclusive [activator, single point] | – |
| CCOC(=O)c1sc(=NC(=O)c2ccc(OC(C)C)cc2)n(C)c1C | – | inactive: 1.13% |
| O=c1c2c3c(sc2nc2n1CCCC2)CCCCC3 | – | inactive: 10.9% |
| COc1ccc(OCc2cc(C(=O)NC(C)c3csc(C)n3)no2)c(Cl)c1 (stereo unspecified) | active: 4.47 µM | – |
| CCOC(=O)c1csc(-c2ccc([N+](=O)[O-])cc2)n1 | inconclusive [activator, single point] | – |
| O=C(NCc1ccco1)c1cc(-c2ccco2)on1 | inconclusive [activator, single point] | – |
| COc1ccc(NC(=O)c2ccco2)cc1N | inconclusive [activator, partial curve] | – |
| CCOc1ccc(NC(=O)c2ccc(CC)s2)c([N+](=O)[O-])c1 | active: 2.24 µM | – |
| COc1ccc2oc(C(=O)N3CCCc4ccccc43)c(C)c2c1 | inconclusive [activator, single point] | – |
| Cn1c(-c2ccc([N+](=O)[O-])cc2)nc2ccccc21 | inconclusive [activator, single point] | – |

| SMILES | Potency | activation, negative = inhibition |
| --- | --- | --- |
| O=c1oc2ccccc2cc1-c1cn2ccccc2n1 | inconclusive [activator, partial curve, poor fit] | – |
| Brc1ccc(-c2nnc(Cc3ccccc3)o2)cc1 | inconclusive [activator, partial curve] | – |
| CC1(C)C2CCC1(CS(=O)(=O)NCc1ccc(S(N)(=O)=O)cc1)C(=O)C2 (stereo unspecified) | – | inactive: 0.866% |
| O=[N+]([O-])c1ccccc1N/N=C/c1ccccc1 | inconclusive [activator, single point] | – |
| Cc1ccc(Cl)c(OCC(=O)N2CCc3ccccc3C2)c1 | inconclusive [activator, single point] | – |
| Fc1ccc(-c2cc3nc(-c4ccccc4)cc(N4CCOCC4)n3n2)cc1 | – | inactive: -1.26% |
| COc1ccccc1NC(=O)CSc1nnc(-c2ccccc2)o1 | inconclusive [activator, single point] | – |
| CCCCOC(=O)NS(=O)(=O)c1sc(CC(C)C)cc1-c1ccc(Cn2c(CC)nc3c(C)cc(C)nc32)cc1 | inactive | – |
| CSc1ccc(/C=C/C(=O)OCC(=O)c2ccc[nH]2)cc1 | inconclusive [activator, single point] | – |
| CCOC(=O)c1ccc2nc(C)c3c(c2c1)OC(C)C3 (stereo unspecified) | – | inactive: 1.25% |
| CS(=O)(=O)Nc1cccc(C2=NN(C(=O)c3ccc(F)cc3)C(c3cccs3)C2)c1 (stereo unspecified) | – | inactive: 1.43% |
| C=CCn1c(C)cc(C2=NNC(=NCc3ccccc3)SC2)c1C | active: 2.24 µM | – |
| COc1ccccc1C(=O)Nc1ccc2c(c1)nc1n2CCN(Cc2ccccc2)C1 | – | inactive: -3.7% |
| CS(=O)(=O)N1CCN(c2nc3ccccc3s2)CC1 | inconclusive [activator, partial curve] | – |
| Cc1c(C(=S)Nc2ccccc2)cnn1-c1ccccc1 | inconclusive [activator, partial curve] | – |
| COc1ccccc1C(=O)NC(=O)Nc1cccc(Cl)c1 | active: 3.98 µM | – |
| COc1ccc(NC(=O)c2ccccc2NC(=O)c2ccco2)cc1 | – | inactive: -0.921% |
| Cc1sc(NC(=O)C2=COCCO2)c(C#N)c1C | inconclusive [activator, single point] | – |
| Cc1nc2ccc(NC(=O)c3ccc([N+](=O)[O-])cc3)cc2s1 | – | inactive: 13.4% |
| Cc1cc(N2CCCCC2)n2ncc(-c3ccccc3)c2n1 | active: 0.316 µM | – |
| CCOC(=O)c1cc2c(=O)c3ccccc3oc2nc1C | inconclusive [activator, partial curve] | – |
| Cc1ccc(/C=N/NC(=O)c2ccco2)s1 | active: 3.16 µM | – |

| SMILES | Potency | activation, negative = inhibition |
| --- | --- | --- |
| CCCc1ccc(Oc2cc(Cl)nc(N)n2)cc1 | inconclusive [activator, single point] | – |
| Cc1ccc(OC(=O)c2ccc(S(=O)(=O)N(C)C)cc2)c(-n2nc3ccccc3n2)c1 | active: 1.41 µM | – |
| O=C(NCc1cccs1)Nc1ccc2c(c1)OCO2 | active: 3.55 µM | – |
| N#CC1CC(c2ccccc2)=NN1c1ccccc1[N+](=O)[O-] (stereo unspecified) | active: 3.55 µM | – |
| O=C(NC1CCCC1)c1cc2cc(Br)ccc2o1 | active: 2.82 µM | – |
| CC(=Nc1ccc(Br)cc1)c1sc2ccccc2c1O | active: 3.16 µM | – |
| CCONc1ncnc2nonc12 | – | inactive: -4.03% |
| Nc1ccc(-c2cnc(-c3ccc(N)cc3)nc2)cc1 | active: 1.58 µM | – |
| O=C(O)CCC(=O)NNC(=O)CCC(=O)Nc1ccccc1 | – | inactive: -1.64% |
| O=C(Nc1ccccc1C(=O)Nc1nnc(C(F)(F)F)s1)c1ccccc1 | – | inactive: -39.1% |
| CC(C)Oc1ccc(CCC(=O)NNC(=O)c2ccccc2C(=O)O)cc1 | – | inactive: -1.79% |
| O=C(Nc1ccccn1)c1ccc2ccccc2n1 | active: 4.47 µM | – |
| Cc1cccc(NC(=O)c2cnn3ccccc23)c1C | inconclusive [activator, partial curve] | – |
| Cc1ccc(-c2nc3ccccc3n2C)o1 | active: 1.12 µM | – |
| O=C(O)c1cnn(-c2nc(-c3ccc(Br)cc3)cs2)c1C(F)(F)F | inconclusive [activator, partial curve] | – |
| COc1cc(/C=C(\C#N)C(=O)Nc2ccc3c(c2)OCCO3)ccc1O | – | inactive: 11.5% |
| Cc1nc(NC(=O)c2ccc(Br)o2)sc1C | inconclusive [activator, single point] | – |
| Cc1sc2nc(SCC(=O)N(C)c3ccccc3)n(C)c(=O)c2c1C | – | inactive: 8.27% |
| CCCCn1c(C23CC4CC(CC(C4)C2)C3)n[nH]c1=S | – | inactive: 5.45% |
| Cc1ccc(Cn2ccc(NC(=O)c3noc4c3CCCC4)n2)cc1 | inconclusive [activator, single point] | – |
| Cc1nn(C(=O)c2cc3sccc3[nH]2)c(C)c1C | inconclusive [activator, single point] | – |
| CCOC(=O)c1cnn(-c2cc(C)c3ccccc3n2)c1N | – | inactive: -30.8% |

| SMILES | Potency | activation, negative = inhibition |
| --- | --- | --- |
| O=C(N/N=C/c1c[nH]c2ccccc12)c1ccc(Br)cc1 | inconclusive [activator, single point] | – |
| O=C(O)c1c2c(nc3ccccc13)/C(=C/c1ccc(OC(F)F)cc1)CCC2 | inconclusive [activator, single point] | – |
| CN(C(=O)c1cc(S(=O)(=O)N2CCOCC2)cs1)c1ccccc1 | – | inactive: 0.783% |
| O=[N+]([O-])c1cc([N+](=O)[O-])c(Oc2cc(Cl)ccc2Cl)cc1NC1CCCCCCC1 | – | inactive: -3.79% |
| Cc1c(C(=O)NC(=S)NCC(C)C)oc2ccccc12 | inconclusive [activator, single point] | – |
| O=C(Nc1nnc(-c2cccs2)o1)c1cccc(Oc2ccccc2)c1 | – | inactive: 7.05% |
| O=C(Nc1ccc2oc(-c3cccc4ccccc34)nc2c1)c1ncn[nH]1 | active: 2.82 µM | – |
| CSc1nnc(NC(=O)C23CC4CC(CC(C4)C2)C3)s1 | inconclusive [activator, partial curve] | – |
| COc1cccc(C(=O)NCC(=O)NCc2cc(=O)n(C)c(=O)n2C)c1 | – | inactive: -6.16% |
| O=C(O)CCCNC(=O)c1nn(Cc2ccccc2)c(=O)c2ccccc12 | – | inactive: 0.446% |
| Clc1ccc(-c2nnc(-c3ccccc3)o2)cn1 | inconclusive [activator, partial curve] | – |
| COc1ccccc1/C=N/Nc1nccnc1Cl | inconclusive [activator, single point] | – |
| O=C(Nc1nnc(-c2ccccc2Cl)s1)c1ccccc1F | active: 3.98 µM | – |
| O=S(=O)(Nc1ccccn1)c1cnc(Cl)c(Br)c1 | – | inactive: 1.57% |
| CC(Cc1cccs1)NC(=O)Nc1ccc(Cl)c(Cl)c1 (stereo unspecified) | inconclusive [activator, single point] | – |
| CCN(Cc1ccccc1)C(=O)c1ccc(CNS(=O)(=O)c2ccc(C)cc2)cc1 | – | inactive: -5.69% |
| O=S(=O)(NCc1ccccn1)c1ccccn1 | – | inactive: 2.94% |
| COc1cccc(/C=C/C(=O)Nc2cccc(C(C)=O)c2)c1OC | active: 2.82 µM | – |
| Fc1ccccc1-c1nc(-c2ccc(Br)o2)no1 | inconclusive [activator, partial curve] | – |
| Cc1ccc(NC(=O)OCCN2CCN(Cc3ccccc3)CCC2=O)cc1 | – | inactive: -3.48% |
